Test results as given in the supplement of paper PMC11417369.
This is one part of the list.

Each sequence was assayed on PfSIP2 AP2 domain 1 (GST-tagged) (assay: gcPBM binding intensity (ln(normalized median fluorescence intensity)); higher = stronger DNA binding).
How it was run: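 An Agilent 4 × 180k array carrying primer-extended double-stranded 36-bp intergenic genomic probes and negative controls received GST-tagged P. falciparum DNA-binding domains expressed in E. coli, about 25 μg on average, for 1 h. The binding buffer contained 1× PBS, 1% milk, 0.2 mg/ml BSA, 0.5% salmon testes DNA and 0.03% Triton X-100. Binding intensity is the top Masliner-normalised natural-log median intensity across replicate spots of either probe orientation, read after Alexa488 anti-GST antibody staining and a 488 nm scan.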
For “AATTAAATTAGAAGCACACACATATTTATATTTATA [CACACA_site7552]”, the “gcPBM binding intensity (ln)” value was 6.84.
For “GTATATATTTAAACACGTACACAAAACCCAAAAAAT [XGTACX_site8110]”, the “gcPBM binding intensity (ln)” value was 7.3.
In the case of “ATACACTCACTCACACGTACAGACAACGGACGATCA [XGTACX_site1097]”, the “gcPBM binding intensity (ln)” value is reported as 7.42.
“AATAATAACACCGTGGATACACAATAACAAAGAACT [CACACA_negctrl_site532]” was tested, and the “gcPBM binding intensity (ln)” value was 7.15.
“AAATATTTTTTTTCTACACACATACAAATATATATT [CACACA_site5325]” was tested, and the “gcPBM binding intensity (ln)” value was 7.18.
“TTTCATTTAGCTTTTACACACTATATATCATTGATT [CACACA_site6158]” was tested, and the “gcPBM binding intensity (ln)” value was 7.03.
“TGAGAGTTCTCATATGCACACAAAAAACTTTCATTT [CACACA_site7898]” was tested, and the “gcPBM binding intensity (ln)” value was 8.03.
In the case of “TTGCAACTCTTCAATCGTACACATTATTTATTATAT [XGTACX_site1377]”, the “gcPBM binding intensity (ln)” value is reported as 7.24.
For “TACATATACATATACACACACACACCCAAATAAATA [CACACA_site1344]”, the “gcPBM binding intensity (ln)” value was 7.58.
With “TAATATTTATGTTAATGTACAAAAAAACAAAACAAA [XGTACX_site301]” the “gcPBM binding intensity (ln)” value was 7.09.
“GTATGTATATATGTATGTACTTATGTATCATTATTA [XGTACX_site2438]” was tested, and the “gcPBM binding intensity (ln)” value was 7.06.
For “ATAATATATATTAAACGTACATAAAATAATTATGGA [XGTACX_site1670]”, the “gcPBM binding intensity (ln)” value was 7.12.
“ATATATATATATCACCGTACTTATATAATAACATGA [XGTACX_site4398]” was tested, and the “gcPBM binding intensity (ln)” value was 9.36.
In the case of “TTTTTTTTTTATTTTTGTACATATATTTCAGTATTA [XGTACX_site8396]”, the “gcPBM binding intensity (ln)” value is reported as 6.95.
TAATTATTCTATTAAGTGCATATATTTTTAAAAAGA was tested, and the “gcPBM binding intensity (ln)” value was 8.16.
For “ATTTTTATTAAAATATGTACGTATTTTACTCATACA [XGTACX_site5330]”, the “gcPBM binding intensity (ln)” value was 7.14.
“ATACAGAAAAAAAACACACACACATAATATACATAC [CACACA_site1933]” was tested, and the “gcPBM binding intensity (ln)” value was 7.21.
For “ATAATATTCGAGTGTGCACACAAACATACATATATA [CACACA_site3396]”, the “gcPBM binding intensity (ln)” value was 8.79.
With “ACAGATATATTTATTTGTACATATCACCAAAATGGA [XGTACX_site5644]” the “gcPBM binding intensity (ln)” value was 6.85.
With “TTAATATAATAAAATCGTACAAATAAAATATAAAAT [XGTACX_site8730]” the “gcPBM binding intensity (ln)” value was 7.14.
In the case of “AAAAATGAGAAACACACACACATATATATATATATA [CACACA_site2228]”, the “gcPBM binding intensity (ln)” value is reported as 9.22.
“TCTTTAAATCGAGTGTTAAATAATATAATATAAAAA [CACACA_negctrl_site1507]” was tested, and the “gcPBM binding intensity (ln)” value was 6.89.
In the case of “AACCAATATGAGTATACACACATAAATATAAATATA [CACACA_site5968]”, the “gcPBM binding intensity (ln)” value is reported as 6.95.
“AAAAAAAAAAAAGATACACACAAAAATGGATATATA [CACACA_site7069]” was tested, and the “gcPBM binding intensity (ln)” value was 6.77.
“TAAGAATAATGACATAGTACAATTTAATAGATCTAA [XGTACX_site3670]” was tested, and the “gcPBM binding intensity (ln)” value was 6.66.
For “AAGTTTATTTGTTGCACACATATAAGTAGAGAAAAT [CACACA_site3027]”, the “gcPBM binding intensity (ln)” value was 7.72.
“TTTTCAAAATAATATTATATCAAATGCTAAAAAGAA [TGCATGCA_negctrl_site588]” was tested, and the “gcPBM binding intensity (ln)” value was 7.39.
In the case of “TACAGATATTATTGCACACATATAAAATACCCCCAA [CACACA_site6014]”, the “gcPBM binding intensity (ln)” value is reported as 7.9.
In the case of “TTACGTTATATACATACACACCCACGCACAAAAAAA [CACACA_site6537]”, the “gcPBM binding intensity (ln)” value is reported as 7.46.
For “ATTAAATACTTCGATTGTACAATTTTTTTTTTTTTT [XGTACX_site832]”, the “gcPBM binding intensity (ln)” value was 7.
In the case of “ATAAAAAACAGTGGCACACATTATGTATCCACCTTT [CACACA_site5958]”, the “gcPBM binding intensity (ln)” value is reported as 7.
In the case of “ATGCATATAATTATATGTACATATAAGAAATATATA [XGTACX_site517]”, the “gcPBM binding intensity (ln)” value is reported as 7.05.
In the case of “CATTTATTATGATAAAGTACTTAAATTAATAGATAA [XGTACX_site3566]”, the “gcPBM binding intensity (ln)” value is reported as 6.89.
For “TATGCACACAATATATGTACTTATATATTTTAAAAA [XGTACX_site5482]”, the “gcPBM binding intensity (ln)” value was 7.51.
In the case of “TTTTATAAAAAAACTATAAAAATATATAGTACTTAA [CACACA_negctrl_site440]”, the “gcPBM binding intensity (ln)” value is reported as 6.83.
For “TCTTTTTTTTTTTTTTTTTCTTCTTCTCAATATAAA [GTGCAC_negctrl_site303]”, the “gcPBM binding intensity (ln)” value was 6.82.
With “TAGTGTATGATAATATGTACATACATTTATATAATA [XGTACX_site6330]” the “gcPBM binding intensity (ln)” value was 7.
With “CATAATATGTGGACTTTACACACTTGTTTTAAAATT [CACACA_site819]” the “gcPBM binding intensity (ln)” value was 6.87.
“CATATAAAGATATGAACACACAAAAAGAATATTTCC [CACACA_site6811]” was tested, and the “gcPBM binding intensity (ln)” value was 6.9.
With “AATAATAAAAAATACACACACATATAAATATATTAC [CACACA_site7597]” the “gcPBM binding intensity (ln)” value was 6.95.
“AGGACACATATATGCAAAAAAAAAAAAAAAAAAAAA [TGCATGCA_negctrl_site427]” was tested, and the “gcPBM binding intensity (ln)” value was 6.98.
For “TTCCGAACGACCTAAAGTACATGTATTTCAACTTTT [XGTACX_site1220]”, the “gcPBM binding intensity (ln)” value was 7.03.
For “TTTTTTTCTCTTTTTATTACAAAAAGGGTTTATATA [TGCATGCA_negctrl_site75]”, the “gcPBM binding intensity (ln)” value was 6.77.
In the case of “ATTATATTAATATATATATATATATATATAATAATA [CACACA_negctrl_site437]”, the “gcPBM binding intensity (ln)” value is reported as 7.55.
